# Results taken from PubChem BioAssay AID686971 (National Center for Advancing Translational Sciences (NCATS), 2013).
# In all, about 360,000 compounds went through this assay and about 7,500 (2.1%) were called active. Inconclusive results, whose numbers are uncertain, are shown with a selection of clear calls. Calls come from the whole dose curve; as a rule, active = well fitted cell-killing curve with a large enough effect; inconclusive = small, poorly fitted or top-dose-only effect, or effect the other way, or another doubt; inactive = no such curve, though single readings can be large or run the other way. No potency is given beside an inconclusive call; the fits are too rough.
# Assay: qHTS for induction of synthetic lethality in tumor cells producing 2HG: qHTS for the HT-1080-IDH1KD cell line;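 for activity, negative = toxicity: 0% = DMSO wells and -100% = cell-free medium wells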
# Conditions: HT-1080 IDH1 knockdown viability, ATP luminescence, 48 h; activity, negative = toxicity: at 46.1 µM (top of the series) unless noted
# How it was run: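 Cytotoxicity counter-line: IDH1KD HT-1080, 48 h, CellTiter-Glo. Curves classed by r2, magnitude and activity.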
# Potency is the fitted concentration of half-maximal effect; tags give direction and shape of the fitted curve.
SMILES,Potency,"activity, negative = toxicity"
COCc1cccc(-c2csc(C(O)c3ccccc3)n2)c1 (centres undefined),"inconclusive [cytotoxic, partial curve]",–
O=C(Nc1cccc(F)c1)N1CCCCCC1,inactive,–
Nc1c(N=O)c(=O)[nH]c(=O)n1-c1ccccc1,inactive,–
COc1ccc(C(c2nnnn2-c2ccc3c(c2)OCCO3)N2CCN(C/C=C/c3ccccc3)CC2)cc1 (centres undefined),"inconclusive [cytotoxic, single point]",–
O=S(=O)(Nc1ccc2cn[nH]c2c1)c1ccc(Cl)s1,inactive,–
CN1CCN(C(=O)c2ccc(NC(=O)c3ccc(Br)o3)cc2)CC1,inactive,–
CCc1ccc(C(=O)NNc2cc(Cl)cc(Cl)c2)cc1,"inconclusive [cytotoxic, partial curve]",–
N#Cc1ccc(C23CC4(C2)[C@H](CN(Cc2cccnc2)[C@@H]4c2ccccc2)C3c2ccccc2)cc1 (some centres undefined),"inconclusive [cytotoxic, single point]",–
COc1ccc(CCn2c(C)cc3c(c2=O)C(c2ccc4c(c2)OCO4)C(C#N)=C(N)O3)cc1OC (centres undefined),"inconclusive [cytotoxic, single point]",–
CCc1nc2ccc(C(=O)NCCCN(C)C)cn2c1N(C)Cc1ccc(OC)cc1,"inconclusive [cytotoxic, partial curve]",–
CC(=O)c1ccc(N2CCN(S(=O)(=O)c3cc4[nH]c(=O)c(=O)[nH]c4cc3C)CC2)cc1,inactive,–
COc1ccccc1-c1cc(-c2ccccc2)nc(SC(C(N)=O)c2ccccc2)c1C#N (centres undefined),"inconclusive [cytotoxic, partial curve]",–
CSCCC(C(=O)Nc1c(C)cccc1C)N1CCC(Cc2ccccc2)CC1 (centres undefined),"inconclusive [cytotoxic, single point]",–
CCCSc1nsc(N)n1,"inconclusive [rising, single point]",–
Cc1csc(NC(=O)CSc2nnc(-c3ccc(Cl)cc3)n2N)n1,"inconclusive [cytotoxic, single point]",–
Cc1ccc2c(c1)N(CC(=O)NC1CCCCCC1)C(=O)c1cccnc1O2,inactive,–
Cc1ccc(SCCNC(=O)c2ccc(C)c(S(=O)(=O)Nc3ccccc3C)c2)cc1,"inconclusive [cytotoxic, single point]",–
Cc1cc(Cl)ccc1OCC(=O)N[C@@H](Cc1ccccc1)c1nc2ccccc2[nH]1,"inconclusive [cytotoxic, single point]",–
Cn1c2ccccc2c(=O)c2ccc(C#CC3(O)CCCCC3)cc21,"inconclusive [cytotoxic, single point]",–
O=C(Cc1ccc(-n2cccc2)cc1)NCc1ccccc1Cl,active: 8.2 µM,–
O=Cc1coc2ccc3ccccc3c2c1=O,"inconclusive [cytotoxic, single point]",–
O=C(Cn1cc(C(=O)c2cccs2)c2ccccc21)NCc1ccc2c(c1)OCO2,inactive,–
COc1ccc(CCNC(=O)CN(c2cc([N+](=O)[O-])ccc2OC)S(C)(=O)=O)cc1,"inconclusive [rising, single point]",–

SMILES,Potency,"activity, negative = toxicity"
CCOC(=O)c1cc2c(c(-c3cccc(-c4cc5ccccc5o4)c3)n1)[C@@H](CCO)N(S(=O)C(C)(C)C)C2 (some centres undefined),"inconclusive [cytotoxic, single point]",–
CCN(CC)C(=S)NC(=O)c1ccc(Cl)cc1Cl,active: 3.55 µM,–
Cc1ccc(C(=O)N/N=C\C2CC=CCC2)cc1[N+](=O)[O-] (centres undefined),"inconclusive [cytotoxic, single point]",–
CCCOc1ccc(C(=O)NCC(C)(C)N2CCOCC2)cc1,–,inconclusive: 32.4%
CC(OC(=O)CSc1ccccc1)C(=O)NC1CCCCC1C (centres undefined),inactive,–
O=C(NCc1ccc(Cl)cc1)c1noc2c1CCCCC2,inactive,–
C[C@@H](c1ccccc1)N1C[C@@H](COCc2ccccc2)Oc2cc(N3CC[C@@H](N(C)C)C3)ccc2S1(=O)=O,active: 23.1 µM,–
O=C(N/N=C/c1ccc([N+](=O)[O-])o1)c1sc2ccccc2c1Cl,"inconclusive [cytotoxic, single point]",–
S=C(NCc1ccc(Cl)cc1)NC12CC3CC(CC(C3)C1)C2,"inconclusive [cytotoxic, single point]",–
Oc1[nH]c2ccc(Br)cc2c1N=NC(=S)N1CCOCC1,active: 1.03 µM,–
CNCCCCOc1ccccc1-c1ccccc1,"inconclusive [cytotoxic, single point]",–
Cc1cccc(/C=N\Nc2nnc(-c3ccccc3)c(=O)[nH]2)c1,"inconclusive [cytotoxic, single point]",–
CCC1([N+](=O)[O-])COC(c2ccc(Cl)cc2)OC1 (centres undefined),inactive,–
C(#CCN1CCOCC1)COCCOC(c1ccccc1)c1ccccc1,"inconclusive [cytotoxic, single point]",–
O=C(Nc1ccc(-c2csc(Nc3ccccc3)n2)cc1)c1cccc(C(F)(F)F)c1,"inconclusive [cytotoxic, single point]",–
COc1cccc(C(C)NC(=O)Nc2cccc(C(F)(F)F)c2)c1 (centres undefined),"inconclusive [cytotoxic, partial curve]",–
FC(F)Oc1ccccc1C1CC(c2ccc(Br)s2)Nc2ncnn21 (centres undefined),"inconclusive [cytotoxic, single point]",–
COc1ccc(C2CC(c3cccc(Br)c3)=NN2c2ccc(S(N)(=O)=O)cc2)cc1 (centres undefined),"inconclusive [cytotoxic, single point]",–
Cc1nn(CC(=O)N2CCCC2)c(=O)c2cc3cc(F)ccc3n12,inactive,–
Cc1ccc(S(=O)(=O)Nc2cc(Cl)c(O)cc2C)cc1,"inconclusive [cytotoxic, single point]",–
CC(=O)c1ccc(Nc2cc(C)nc3c(C)cccc23)cc1,active: 3.66 µM,–
O=C(NN=Cc1c(O)ccc2ccccc12)c1ccncc1,"inconclusive [cytotoxic, full curve]",–
CCCCOc1ccc(-c2cn3ccccc3n2)cc1[N+](=O)[O-],"inconclusive [cytotoxic, single point]",–

SMILES,Potency,"activity, negative = toxicity"
C[C@]12c3[nH]c4ccccc4c3CCN1C(=O)C(CC(=O)NCc1ccco1)C[C@@H]2C(=O)N1CCCCC1 (some centres undefined),inactive,–
CC1CCc2c(sc(Nc3nc4c(F)cccc4s3)c2C(N)=O)C1 (centres undefined),"inconclusive [cytotoxic, single point]",–
CCc1ccc(N2CC(C(=O)N/N=C/c3ccccc3)CC2=O)cc1 (centres undefined),inactive,–
COC(=O)[C@]12CCCCC=C1N(Cc1cccc3ccccc13)C(=O)[C@H](CC(=O)N1CCCC1)C2,"inconclusive [cytotoxic, partial curve, poor fit]",–
Cc1ccc(-c2ccc(/C=N\NC(=O)C3C(=O)NCC3c3ccccc3)o2)cc1Cl (centres undefined),"inconclusive [cytotoxic, single point]",–
COc1ccc(-c2noc(-c3ccc(Br)o3)n2)cc1OC,"inconclusive [cytotoxic, single point]",–
Cc1ccc2[nH]c(O)c(N=Nc3ccccc3[N+](=O)[O-])c2c1,inactive,–
CN(C)c1ccc(C=NNC(=O)c2cccc3ccccc23)c(Cl)c1,"inconclusive [cytotoxic, partial curve]",–
Cn1cc(C(=O)c2ccc(Cl)cc2Cl)cc1C(=O)N/N=C(\N)COc1cccc(C(F)(F)F)c1,"inconclusive [cytotoxic, single point]",–
CN(C)c1cccc(NC(=O)C2Cc3c(-c4ccc(Cl)cc4)ccnc3O2)c1 (centres undefined),"inconclusive [cytotoxic, single point]",–
O=C(NNC(=O)c1ccc(NC(=O)c2ccccc2)cc1)c1ccccc1,"inconclusive [cytotoxic, partial curve]",–
CC(C)(C)c1ccc(C(O)c2ncc(-c3ccc(F)cc3)[nH]2)cc1 (centres undefined),"inconclusive [cytotoxic, single point]",–
COc1ccc(C(C(=O)NC2CCCCC2)N(Cc2ccco2)C(=O)c2snc(C(N)=O)c2N)cc1 (centres undefined),inactive,–
Cc1cc(C)n(-c2nc(Nc3ccccc3C(F)(F)F)nc(-n3nc(C)cc3C)n2)n1,"inconclusive [cytotoxic, single point]",–
C=CCn1c(O)c(N=NC(=S)Nc2ccc(OC)c(Cl)c2)c2ccccc21,"inconclusive [cytotoxic, partial curve]",–
O=C(N/N=C/c1ccccn1)NC12CC3CC(CC(C3)C1)C2,inactive,–
O=C(NN=C1c2ccccc2-c2ccccc21)c1ccccc1Br,"inconclusive [cytotoxic, single point]",–
COc1cccc(-c2sc3ccc(OC)cc3c2-c2ccc(OCCN(C)C)cc2)c1,"inconclusive [cytotoxic, single point]",–
NC(N)=N/N=C(\N=Nc1ccccc1)c1cccc2cccnc12,"inconclusive [cytotoxic, single point]",–
N#Cc1c(Nc2ccccc2)[n+]([O-])c2ccc(Cl)cc2[n+]1[O-],"inconclusive [cytotoxic, partial curve]",–
CCOC(=O)Cc1nnc(Nc2ccc(C(=O)NC)cc2)c2ccccc12,–,inconclusive: 32.2%
O=C(CSc1nc(-c2ccccc2)c(-c2ccccc2)o1)N1CCCCC1,"inconclusive [cytotoxic, single point]",–
CCCN1Cc2cccc(C(=O)Nc3ccc(OC)c(OC)c3)c2C1=O,"inconclusive [rising, single point]",–
